Source: a collection of fitness landscapes (doi:10.1016/j.celrep.2020.107928)
Whole data set: some 81,000 sequences, median “one-hybrid fitness for binding NBS DNA” near -0.1, cut for the highest 2% near 0.36. The list shows a part of the results.

B1: Caulobacter ParB omega fusion; a variant is named by its letters at X, in order, B8GW30 (parent)
chain: MESVVVGEPGMSEGRRGLGRGLSALLGEVDAAPAQAPGEQLGGSREAPIEILQRNPDQPRRTFREEDLEDLSNSIREKGVLQPILVRPSPDTAGEYQIVAGERAWRAAQRAGLKTVPIMVRELDDLAVLEIGIIENVQRADLNVLEEALSYKVLMEKFERTQENIAQTIGKSXSHVANXMRLLXLPDEVQSYLVSGELTAXHARAIAAAADPVALAKQIIEGGLSVRETEALARKAPNLSAGKSKGGRPPRVKDTDTQALESDLSSVLGLDVSIDHRGSTGTLTITYATLEQLDDLCNRLTRGI

Variants of: B1
Experiment: one-hybrid fitness for binding NBS DNA (the Noc-binding site; scaled: cognate 1, non-cognate 0); higher = stronger binding
Conditions: with NBS DNA site
Method in brief: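 Fitness is the rescaled log change in variant-to-wild-type read ratio, measured by Illumina sequencing of plasmids before and after bacterial one-hybrid selection. The scale puts cognate at 1 and non-cognate at 0. Selection of Caulobacter ParB libraries, four specificity codons randomised, took place in E. coli USO with a HIS3 reporter, site 19 bp from the promoter, over 48 hours at 37°C on M9-minus-histidine with 0.1 mM IPTG and 5 mM 3-AT.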

Variant | one-hybrid fitness for binding NBS DNA
KDVR | ≤ 0.2
RKLI | ≤ 0.2
LSVA | ≤ 0.2
EATG | ≤ 0.2
WLLY | ≤ 0.2
THFP | ≤ 0.2
HRTR | ≤ 0.2
AHCT | ≤ 0.2
RGDP | ≤ 0.2
FHFS | ≤ 0.2
WYFL | ≤ 0.2
RDPV | ≤ 0.2
SAQS | ≤ 0.2
DKMS | ≤ 0.2
LWQG | ≤ 0.2
DEKS | ≤ 0.2
SHDT | ≤ 0.2
SGLF | ≤ 0.2
SKLY | ≤ 0.2
AVPS | ≤ 0.2
LLID | ≤ 0.2
AGEG | ≤ 0.2
DRRH | ≤ 0.2
ADNY | ≤ 0.2

Variant | one-hybrid fitness for binding NBS DNA
RCWL | ≤ 0.2
QQQN | ≤ 0.2
GWHG | ≤ 0.2
PPKG | ≤ 0.2
DGQV | ≤ 0.2
KPLT | ≤ 0.2
ANVR | ≤ 0.2
YKRV | ≤ 0.2
KVQR | ≤ 0.2
GYCS | ≤ 0.2
THLA | ≤ 0.2
GNYT | ≤ 0.2
LCQT | ≤ 0.2
FAPW | ≤ 0.2
SMCR | ≤ 0.2
TTSC | ≤ 0.2
PALT | ≤ 0.2
IFVS | ≤ 0.2
RRYM | 0.296
YPCV | ≤ 0.2
QYAK | ≤ 0.2
IQQS | ≤ 0.2
VFVD | ≤ 0.2
RPSH | ≤ 0.2

Variant | one-hybrid fitness for binding NBS DNA
KYTL | ≤ 0.2
YDDT | ≤ 0.2
QRKH | 0.766
HNRN | ≤ 0.2
QTKY | 0.658
WYRT | ≤ 0.2
LFMG | ≤ 0.2
GHHG | ≤ 0.2
PPTC | ≤ 0.2
EYLG | ≤ 0.2
RYYW | ≤ 0.2
SFSL | ≤ 0.2
MEMS | ≤ 0.2
ERFR | ≤ 0.2
ISIL | ≤ 0.2
TETS | ≤ 0.2
QEGT | ≤ 0.2
QELV | ≤ 0.2
TRGR | 0.389
AYPR | ≤ 0.2
VNWS | ≤ 0.2
RHVY | ≤ 0.2
LYMD | ≤ 0.2
KLVA | ≤ 0.2

Variant | one-hybrid fitness for binding NBS DNA
RIML | ≤ 0.2
FGDM | ≤ 0.2
CFNG | ≤ 0.2
TMWP | ≤ 0.2
PTDF | ≤ 0.2
MWIV | ≤ 0.2
TNKT | ≤ 0.2
WGMR | ≤ 0.2
LCCS | ≤ 0.2
CMPG | ≤ 0.2
GFRL | ≤ 0.2
ERHC | ≤ 0.2
RNNI | ≤ 0.2
HEDP | ≤ 0.2
VPRK | ≤ 0.2
HHSK | ≤ 0.2
KMGD | ≤ 0.2
YLTW | ≤ 0.2
RHDY | ≤ 0.2
HSSE | ≤ 0.2
GQER | ≤ 0.2
KMGS | ≤ 0.2
KNDS | ≤ 0.2
TDVI | ≤ 0.2

Variant | one-hybrid fitness for binding NBS DNA
AELY | ≤ 0.2
FASK | ≤ 0.2
IKWT | ≤ 0.2
TGLR | ≤ 0.2
PTRC | ≤ 0.2
ITDG | ≤ 0.2
PSVP | ≤ 0.2
RSNC | ≤ 0.2
QRTW | 0.266
PYNE | ≤ 0.2
NDLG | ≤ 0.2
LSWS | ≤ 0.2
ADYM | ≤ 0.2
AGSW | ≤ 0.2
QENT | ≤ 0.2
VNGF | ≤ 0.2
SFKN | ≤ 0.2
TDNC | ≤ 0.2
VIKE | ≤ 0.2
QVHD | ≤ 0.2
YFSC | ≤ 0.2
RINC | ≤ 0.2
TQMR | ≤ 0.2
RPTM | ≤ 0.2

Variant | one-hybrid fitness for binding NBS DNA
GEPR | ≤ 0.2
FTVA | ≤ 0.2
TPWT | ≤ 0.2
QKVL | ≤ 0.2
TQHC | ≤ 0.2
VYIC | ≤ 0.2
QSKY | 0.517
PKLR | ≤ 0.2
GSST | ≤ 0.2
FHRT | ≤ 0.2
TGMG | ≤ 0.2
INPS | ≤ 0.2
RNMG | ≤ 0.2
YWSP | ≤ 0.2
AYQQ | ≤ 0.2
EHAC | ≤ 0.2
HGHL | ≤ 0.2
SSGP | ≤ 0.2
VCPG | ≤ 0.2
NRKE | ≤ 0.2
LYIC | ≤ 0.2
TYNT | ≤ 0.2
RQRI | ≤ 0.2
KLRD | ≤ 0.2

Variant | one-hybrid fitness for binding NBS DNA
PEQK | ≤ 0.2
PGAF | ≤ 0.2
TMYW | ≤ 0.2
NALE | ≤ 0.2
VVNN | ≤ 0.2
EMIL | ≤ 0.2
HPGC | ≤ 0.2
VEGP | ≤ 0.2
PEPE | ≤ 0.2
AQTT | ≤ 0.2
TWTF | ≤ 0.2
EYKS | ≤ 0.2
QPSD | ≤ 0.2
EQSG | ≤ 0.2
QFSV | ≤ 0.2
NQHQ | ≤ 0.2
WCRR | 0.223
YHPY | ≤ 0.2
RFTA | ≤ 0.2
QMAK | ≤ 0.2
TPFL | ≤ 0.2
EPMD | ≤ 0.2
QNNR | 0.287
GNME | ≤ 0.2

Variant | one-hybrid fitness for binding NBS DNA
AEQG | ≤ 0.2
TFAT | ≤ 0.2
QGEP | ≤ 0.2
RSYM | ≤ 0.2
AHNV | ≤ 0.2
TVVP | ≤ 0.2
YNQP | ≤ 0.2
LDSA | ≤ 0.2
ATNL | ≤ 0.2
YVLS | ≤ 0.2
VTEC | ≤ 0.2
ANHE | ≤ 0.2
EDRV | ≤ 0.2
QLMH | ≤ 0.2
PPDP | ≤ 0.2
RNVL | ≤ 0.2
PVEW | ≤ 0.2
RLDI | ≤ 0.2
RGEV | ≤ 0.2
QYRC | 0.38
FHLR | ≤ 0.2
PVRK | ≤ 0.2
LSAM | ≤ 0.2
RHKN | 0.205

Variant | one-hybrid fitness for binding NBS DNA
CKTA | ≤ 0.2
TSCD | ≤ 0.2
LPSR | ≤ 0.2
PYRN | ≤ 0.2
SGNP | ≤ 0.2
RACE | ≤ 0.2
MQNG | ≤ 0.2
YTPL | ≤ 0.2
WYPR | ≤ 0.2
VATN | ≤ 0.2
NMHD | ≤ 0.2
ASSF | ≤ 0.2
KRMA | 0.237
QPKH | ≤ 0.2
KTLV | ≤ 0.2
TGGY | ≤ 0.2
LVEG | ≤ 0.2
CVYS | ≤ 0.2
ERSN | ≤ 0.2
CPMG | ≤ 0.2
LGLK | ≤ 0.2
PQVS | ≤ 0.2
QSSW | ≤ 0.2
QAMH | 0.219

Variant | one-hybrid fitness for binding NBS DNA
AYGT | ≤ 0.2
TMYG | ≤ 0.2
VSTG | ≤ 0.2
SMIV | ≤ 0.2
CNHG | ≤ 0.2
ARCD | ≤ 0.2
APND | ≤ 0.2
GRNY | ≤ 0.2
LMKC | ≤ 0.2
RYMQ | ≤ 0.2
TIWL | ≤ 0.2
ILCR | ≤ 0.2
GVPW | ≤ 0.2
WHIR | ≤ 0.2
IGWR | ≤ 0.2
MHYV | ≤ 0.2
TKKH | ≤ 0.2
STVR | ≤ 0.2
YHHS | ≤ 0.2
HMTS | ≤ 0.2
REAW | ≤ 0.2
RMAW | ≤ 0.2
LMIS | ≤ 0.2
CVSC | ≤ 0.2

Variant | one-hybrid fitness for binding NBS DNA
QWRM | ≤ 0.2
DHVT | ≤ 0.2
EGTW | ≤ 0.2
YIFD | ≤ 0.2
IYST | ≤ 0.2
YVPS | ≤ 0.2
EVDL | ≤ 0.2
STYC | ≤ 0.2
NIKH | ≤ 0.2
LMQL | ≤ 0.2
PHRH | ≤ 0.2
YKFR | ≤ 0.2
TPLI | ≤ 0.2
MRDI | ≤ 0.2
PYHD | ≤ 0.2
RIKE | ≤ 0.2
NECS | ≤ 0.2
STLS | ≤ 0.2
WRSE | ≤ 0.2
FLED | ≤ 0.2
AICR | ≤ 0.2
QHMR | 0.512
FYTC | ≤ 0.2
AKEC | ≤ 0.2

Variant | one-hybrid fitness for binding NBS DNA
PWNC | ≤ 0.2
NHPG | ≤ 0.2
AANA | ≤ 0.2
ALER | ≤ 0.2
QTRQ | 0.581
YQPF | ≤ 0.2
CCEE | ≤ 0.2
WANT | ≤ 0.2
WHMC | ≤ 0.2
SFDG | ≤ 0.2
INMT | ≤ 0.2
KADD | ≤ 0.2
DSNS | ≤ 0.2
KMLT | ≤ 0.2
PKTC | ≤ 0.2
AKIT | ≤ 0.2
AEAW | ≤ 0.2
PKVV | ≤ 0.2
VKWS | ≤ 0.2
KVRV | ≤ 0.2
WFED | ≤ 0.2
LFHR | ≤ 0.2
HQAS | ≤ 0.2
QKIW | ≤ 0.2

Variant | one-hybrid fitness for binding NBS DNA
YSMG | ≤ 0.2
KRYY | ≤ 0.2
AGCG | ≤ 0.2
QFKK | ≤ 0.2
KLLT | ≤ 0.2
SIMW | ≤ 0.2
QEGR | ≤ 0.2
DGPV | ≤ 0.2
RENY | ≤ 0.2
RSYT | 0.322
EIPG | ≤ 0.2
ANSP | ≤ 0.2
HPDR | ≤ 0.2
EAKD | ≤ 0.2
PRMR | ≤ 0.2
RHEA | ≤ 0.2
SNHH | ≤ 0.2
GIQC | ≤ 0.2
